From the supplement of paper PMC3724861
The other results are listed elsewhere or left out.

Test system: T1, Caupolican (Caup) homeodomain DNA-binding domain
T1 sequence: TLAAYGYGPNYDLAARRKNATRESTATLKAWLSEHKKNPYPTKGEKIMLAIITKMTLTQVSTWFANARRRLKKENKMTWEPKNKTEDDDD
Assay: PBM E-score (8-mer, recovered from the published 9-mer minima) (E-score (dimensionless, -0.5 to 0.5)); Drosophila protein; higher = stronger relative binding preference, active = 0.31 or more
Summary of the method: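 Caup's homeodomain DNA-binding domain (residues 214-303) was produced by in vitro transcription and translation and applied at 100 nM to custom-designed protein binding microarrays. Each value is an enrichment score giving relative binding preference for a short DNA word; higher means stronger. Published 9-mer scores were the minimum of their two constituent 8-mer scores, and the 8-mer values were recovered from those minima. A cutoff of 0.31 marks candidate binding sequences.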

| Sequence | PBM E-score |
| --- | --- |
| GGGGACCC | inactive: -0.384 |
| AGGCGACG | inactive: -0.203 |
| ATGGAGAG | inactive: -0.0433 |
| CGAGGCCA | inactive: -0.0938 |
| CATAGCTA | inactive: -0.0309 |
| ACTATATC | inactive: 0.189 |
| GTCGGATA | inactive: 0.146 |
| CTAAAAAA | inactive: 0.0517 |
| ATGCAAAT | inactive: 0.168 |
| ATGAGTGC | inactive: -0.0461 |
| GATTTTAA | inactive: 0.0492 |
| ACAACAGG | inactive: 0.192 |
| ATTCATAC | inactive: 0.128 |
| AACCATCA | inactive: 0.0883 |
| GGCTGGCA | inactive: -0.238 |
| AGAGAAGC | inactive: -0.0129 |
| AGTACTAC | inactive: 0.268 |
| GCTCTACA | inactive: 0.0637 |
| CTTATCAA | inactive: 0.108 |
| CTCTTATC | inactive: 0.083 |
| CAAGGTAA | inactive: 0.125 |
| AAAATCAG | inactive: 0.119 |
| ATATTCAT | ≥ 0.172 |
| CATACCGG | inactive: -0.0711 |
| ATGCCTTC | inactive: -0.136 |

| Sequence | PBM E-score |
| --- | --- |
| AGGGAGCG | inactive: -0.207 |
| AGCGGTTA | inactive: -0.0759 |
| CCATCTCG | inactive: -0.151 |
| CTGGTGTA | inactive: 0.166 |
| ACGATTGG | inactive: -0.0267 |
| ATGTAAAA | active: 0.354 |
| CCTTTCCC | inactive: -0.174 |
| ACACCTAC | inactive: 0.187 |
| AAAGATCA | inactive: 0.00037 |
| ACCGACCA | ≥ -0.00916 |
| ATCAAGGA | inactive: -0.00179 |
| CCGTTGAC | inactive: -0.0215 |
| ACCGTCTC | inactive: -0.0897 |
| ACTTCAAG | inactive: 0.106 |
| ACTGTCTA | inactive: 0.0904 |
| ACGTATGG | inactive: 0.0469 |
| GAGCGAGC | inactive: -0.196 |
| ATACGATG | inactive: 0.15 |
| AGGGCAAG | inactive: -0.036 |
| GCTTCGCA | inactive: -0.116 |
| AACAGGGG | inactive: 0.0757 |
| ACGAAAAT | ≥ 0.138 |
| AAAAATTT | inactive: 0.0755 |
| GCAAAGAA | inactive: -0.0885 |
| ATGAACAC | active: 0.332 |

| Sequence | PBM E-score |
| --- | --- |
| CAAACCGA | inactive: 0.0751 |
| GTGAAGGA | inactive: -0.0495 |
| CACAGCCC | inactive: -0.2 |
| AATGCATA | inactive: 0.0394 |
| AATAAAGA | inactive: 0.0782 |
| ACAATAGG | inactive: 0.0633 |
| ACCAGAGG | inactive: -0.103 |
| AGTTAGCA | inactive: 0.108 |
| ACTATACG | inactive: 0.0859 |
| ATAGGCAC | inactive: -0.142 |
| AGCGGTAA | inactive: 0.0469 |
| ATAGTCTG | inactive: 0.0481 |
| CGTATCTC | inactive: -0.0862 |
| ATCGTGGG | inactive: -0.132 |
| TGTCCCAA | inactive: 0.0761 |
| AGCCCGAT | inactive: -0.0775 |
| TCGTCTAA | inactive: -0.0451 |
| CCGGGATC | inactive: -0.172 |
| AGTGCGAG | inactive: -0.126 |
| AGAGGCCA | inactive: -0.184 |
| GACTCCTC | inactive: -0.117 |
| ACTCAGCA | inactive: 0.0319 |
| AGGTCAAA | inactive: -0.0266 |
| CTCGTCGC | inactive: -0.147 |
| CTCCCAAC | inactive: -0.194 |

| Sequence | PBM E-score |
| --- | --- |
| ATAGCGAG | inactive: -0.0625 |
| GACAGGGC | inactive: -0.0448 |
| GACTGGGA | inactive: -0.0843 |
| CTACCAAA | inactive: 0.0218 |
| GCGTCATA | inactive: 0.0873 |
| AGAACACT | inactive: 0.108 |
| AAGAGTGA | ≥ 0.123 |
| TCTCCAGA | inactive: -0.0511 |
| CGAGTGAG | inactive: -0.0716 |
| GTCTTCGA | inactive: -0.0595 |
| ACCTGTGC | inactive: 0.0281 |
| GGTTGCTA | inactive: -0.0979 |
| ACATAGTC | inactive: 0.274 |
| ATAAATCG | inactive: -0.0213 |
| AGAAAGTC | inactive: -0.0132 |
| GAGTCGAC | inactive: 0.0385 |
| AACCCGCA | inactive: -0.135 |
| AGGCTTGG | inactive: -0.0901 |
| CCATGAGC | inactive: -0.158 |
| ATGTGTTG | active: 0.34 |
| CTCCGAAC | inactive: -0.0483 |
| CATACAAG | inactive: 0.3 |
| GGAATTAA | inactive: 0.108 |
| CCGGAAAC | inactive: -0.0865 |
| GGTCAGAA | inactive: -0.0475 |

| Sequence | PBM E-score |
| --- | --- |
| GACAAGCC | inactive: 0.212 |
| CGTCGACA | inactive: 0.116 |
| ACCCTGCT | inactive: -0.0977 |
| ACTCTCAG | inactive: -0.104 |
| CTGCGATA | inactive: -0.0217 |
| CCTTTTAA | inactive: -0.0428 |
| GACACATC | inactive: 0.131 |
| AAGAGCCA | inactive: -0.0558 |
| CCAGGAGC | inactive: -0.311 |
| GACACTCC | inactive: -0.0366 |
| GGGGAAAC | inactive: -0.102 |
| GTATTGAC | inactive: 0.21 |
| ACGACCGA | ≥ 0.0409 |
| CTCATGGA | inactive: 0.0584 |
| ATCCAATG | inactive: 0.045 |
| AAGAGACC | inactive: -0.0707 |
| GGGATGTA | inactive: 0.253 |
| AACTGGTG | inactive: -0.017 |
| CACCATCA | inactive: 0.00831 |
| AAGCTGGA | inactive: -0.0863 |
| TAGAGGCA | inactive: -0.0603 |
| GTTTCTCA | inactive: 0.00502 |
| CAATCGAA | inactive: 0.0361 |
| CAAGCCCA | inactive: -0.0234 |
| GATATAGC | inactive: 0.0239 |

| Sequence | PBM E-score |
| --- | --- |
| AAGTCCGA | inactive: -0.0277 |
| TAAAGGGA | inactive: -0.0105 |
| AGATACGG | inactive: -0.0361 |
| AGATGGCG | inactive: -0.098 |
| GTATTTTA | inactive: 0.146 |
| AGGTGTGG | inactive: -0.15 |
| ACCTGTGA | inactive: 0.0824 |
| GTCTAGGA | inactive: -0.0374 |
| GGGAGCAC | inactive: -0.143 |
| ATCATTCG | inactive: 0.0941 |
| CACCATAA | inactive: 0.0632 |
| GAAGTTAC | inactive: 0.114 |
| GATTGTAC | inactive: 0.235 |
| CCAATACA | inactive: 0.246 |
| ATCGCGAG | inactive: -0.00263 |
| AGTAGCAG | inactive: 0.0982 |
| CAAGCCCG | inactive: -0.0915 |
| ATAAGTCA | inactive: 0.046 |
| TCTGAGAA | ≥ 0.0563 |
| ACTTATAA | inactive: 0.103 |
| GCGCCGTA | inactive: -0.0821 |
| CACTGATG | inactive: 0.107 |
| ATAAAGAG | inactive: -0.00301 |
| AAACGTGT | active: 0.31 |
| GACGGCCA | inactive: -0.221 |

| Sequence | PBM E-score |
| --- | --- |
| CAAAGGAG | inactive: -0.0814 |
| CATGACGA | inactive: 0.0682 |
| TCATGAGA | inactive: 0.0179 |
| ATCCCGTC | inactive: -0.0419 |
| CAGTCCTC | inactive: -0.128 |
| AAGGGGGT | inactive: -0.212 |
| AATGGTCG | inactive: -0.0664 |
| ACGGTACA | inactive: 0.207 |
| ACTTTGAG | inactive: -0.0584 |
| AGTAAATG | inactive: 0.144 |
| AACGATCC | inactive: -0.072 |
| CAAGCCGC | inactive: -0.178 |
| CCCTGCCC | inactive: -0.285 |
| GCTTTGTA | inactive: 0.124 |
| ATTGCATG | inactive: 0.202 |
| GGGATGGA | inactive: -0.137 |
| CCGAAAGC | inactive: -0.0814 |
| TAACGTGA | inactive: 0.0644 |
| CATGTTCG | active: 0.399 |
| GCAGACTA | inactive: -0.00336 |
| AAGTGGCT | inactive: -0.132 |
| CGTCCCTC | inactive: -0.189 |
| CCGTTTCC | inactive: -0.15 |
| GATGTTAC | inactive: 0.295 |
| GGCATAGA | inactive: -0.00126 |

| Sequence | PBM E-score |
| --- | --- |
| AGCCACTC | inactive: -0.119 |
| CGCTGCAG | inactive: -0.101 |
| TCAGAGGA | inactive: -0.0823 |
| AAGTAGTC | inactive: 0.159 |
| CAAGGCCG | inactive: -0.103 |
| ACGCTGCG | inactive: -0.141 |
| CTTACCTC | inactive: -0.149 |
| ATCCCAGC | inactive: -0.137 |
| CGAAAAAA | inactive: 0.0305 |
| GTAGAAAC | inactive: 0.0787 |
| AAAATTTT | inactive: 0.0308 |
| ATTTGCTA | inactive: 0.0587 |
| AACCGTAG | inactive: -0.0767 |
| AGTCAAGA | inactive: -0.0668 |
| AAGGTGAA | inactive: -0.03 |
| CCCGCGAG | inactive: -0.239 |
| AAAATCAC | ≥ 0.164 |
| AAAGTTCG | inactive: -0.00941 |
| CGAACCAA | inactive: -0.018 |
| GGACTTAA | inactive: -0.0309 |
| AGTCCTAT | inactive: 0.0606 |
| CAGTTCCA | inactive: 0.0358 |
| CACACTGC | inactive: -0.0174 |
| ACCCAGTC | inactive: -0.116 |
| CGAAGCAA | inactive: 0.0454 |

| Sequence | PBM E-score |
| --- | --- |
| CGCTCAAG | inactive: -0.197 |
| TCCCAACA | inactive: 0.0498 |
| CCTCAACA | inactive: 0.0443 |
| ATCCTGAG | inactive: -0.0222 |
| CCACTGGA | inactive: -0.0569 |
| CTTAAAGC | inactive: -0.0482 |
| AATTACAG | inactive: 0.244 |
| CCTATCCC | inactive: -0.056 |
| ATGTGCCA | inactive: 0.119 |
| CCAAAATC | inactive: -0.0159 |
| GCGCCACA | inactive: -0.129 |
| AAATTTTA | inactive: 0.0807 |
| AGACGCCC | inactive: -0.207 |
| CCATGGCG | inactive: -0.139 |
| CCGATTGA | inactive: 0.0721 |
| AACGTGAT | inactive: 0.105 |
| CCTTTCCG | inactive: -0.139 |
| AACTCAGA | ≥ 0.0703 |
| AAAATGCA | inactive: 0.0534 |
| CTCCCGAA | inactive: -0.138 |
| ATCCACTA | inactive: 0.0686 |
| CACAGTGC | inactive: -0.0778 |
| CTTCACGC | inactive: -0.00498 |
